T1: Biotin-IL-2Rβ-His (UniProt P14784 27-239, limits assumed, biotin-labeled (site not stated))
T1 construct: also called biotin-labeled IL-2Rβ; not shown: His tag
T1 sequence (looked up): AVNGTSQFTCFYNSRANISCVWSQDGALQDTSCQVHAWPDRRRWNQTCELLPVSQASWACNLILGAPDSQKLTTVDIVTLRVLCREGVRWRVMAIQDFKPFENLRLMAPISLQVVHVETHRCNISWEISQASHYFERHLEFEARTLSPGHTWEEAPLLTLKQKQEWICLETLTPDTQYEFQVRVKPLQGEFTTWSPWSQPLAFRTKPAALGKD

T2: Biotin-IL-2Rα-His (UniProt P01589 22-213, limits assumed, biotin-labeled (site not stated))
T2 construct: also called biotin-labeled IL-2Rα; not shown: His tag
T2 sequence (looked up): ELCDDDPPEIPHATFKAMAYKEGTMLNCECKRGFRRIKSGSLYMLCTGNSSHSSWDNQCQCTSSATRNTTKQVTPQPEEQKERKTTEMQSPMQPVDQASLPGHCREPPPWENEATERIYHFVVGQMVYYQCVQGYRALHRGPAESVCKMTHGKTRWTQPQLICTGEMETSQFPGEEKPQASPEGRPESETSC

T3: IL-2Rα-Fc (Acro Biosystems, catalog #ILA-H5251) (UniProt P01589 22-213)
T3 construct: not shown: Fc
T3 sequence (looked up): T2 sequence (looked up)

T4: IL-2Rβ-Fc (Acro Biosystems, catalog #ILB-H5253) (UniProt P14784 27-239)
T4 construct: not shown: Fc
T4 sequence (looked up): T1 sequence (looked up)

T5: Mouse IL-2Rα, His tag (Table 10) (mouse, UniProt P01590 22-236, limits assumed)
T5 construct: not shown: polyhistidine tag (tag cell printed once at r13)
T5 sequence (looked up): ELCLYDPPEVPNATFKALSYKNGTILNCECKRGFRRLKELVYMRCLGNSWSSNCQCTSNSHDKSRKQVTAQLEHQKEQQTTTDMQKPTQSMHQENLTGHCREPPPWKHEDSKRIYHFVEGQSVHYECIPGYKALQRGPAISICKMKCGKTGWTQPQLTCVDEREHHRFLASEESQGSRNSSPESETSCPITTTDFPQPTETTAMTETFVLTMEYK

T6: Rat IL-2Rβ, His tag (Table 10) (rat, UniProt P26896 27-239, limits assumed)
T6 construct: not shown: polyhistidine tag (tag cell printed once at r17)
T6 sequence (looked up): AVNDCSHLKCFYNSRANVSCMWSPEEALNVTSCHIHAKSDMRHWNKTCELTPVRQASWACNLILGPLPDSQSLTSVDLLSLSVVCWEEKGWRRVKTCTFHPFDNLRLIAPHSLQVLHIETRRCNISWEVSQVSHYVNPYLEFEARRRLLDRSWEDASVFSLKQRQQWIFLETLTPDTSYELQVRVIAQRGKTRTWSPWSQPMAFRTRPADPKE

T7: Cynomolgus/Rhesus IL-2Rβ, His tag (Table 10) (cynomolgus monkey / rhesus monkey, UniProt Q38J85 27-240)
T7 sequence: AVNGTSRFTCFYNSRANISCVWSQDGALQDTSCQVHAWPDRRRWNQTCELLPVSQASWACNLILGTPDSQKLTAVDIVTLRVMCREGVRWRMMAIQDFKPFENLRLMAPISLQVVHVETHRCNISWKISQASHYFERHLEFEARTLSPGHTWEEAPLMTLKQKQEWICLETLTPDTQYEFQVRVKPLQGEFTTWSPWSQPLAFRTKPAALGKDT

T8: Human IL-2Rβ, His tag (Table 10) (human, UniProt P14784 27-239, limits assumed)
T8 construct: not shown: polyhistidine tag
T8 sequence (looked up): T1 sequence (looked up)

B1: Ald-6HIS (ligand)
chain: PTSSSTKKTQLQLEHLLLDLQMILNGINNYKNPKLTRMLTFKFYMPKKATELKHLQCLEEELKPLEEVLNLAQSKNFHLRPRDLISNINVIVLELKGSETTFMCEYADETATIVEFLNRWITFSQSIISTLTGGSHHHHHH
notes: also called aldesleukin with carboxyl-terminus HIS6-tag linked via a Gly-Gly-Ser linker
B2: Aldesleukin (DesA1_IL-2_C124S) (ligand)
chain: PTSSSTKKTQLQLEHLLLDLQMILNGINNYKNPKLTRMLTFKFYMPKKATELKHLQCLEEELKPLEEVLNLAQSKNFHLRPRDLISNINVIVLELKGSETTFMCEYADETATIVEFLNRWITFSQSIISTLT

How the values were obtained:
Biotin-IL-2Rβ-His = molecular target: T1, Biotin-IL-2Rβ-His; experiment: SPR (Biacore T200)
Biotin-IL-2Rα-His = molecular target: T2, Biotin-IL-2Rα-His; experiment: SPR (Biacore T200)
[1] = molecular target: T3, IL-2Rα-Fc (Acro Biosystems, catalog …); experiment: SPR, receptor-Fc captured on anti-Fc, IL-2 variant as analyte
Experimental: (§1) Anti-Fc polyclonal antibodies are immobilized onto a CM5 chip (GE Life Sciences) using amine coupling chemistry (from Amine Coupling Kit, GE Life Sciences). The immobilization steps are carried out at a flow rate of 25 μL/minute in 1×HBS-EP+ buffer (GE Life Sciences; 10× Stock diluted before use). The sensor surfaces are activated for 7 min with a mixture of NHS (0.05 M) and EDC (0.2 M). The anti-Fc antibodies are injected over all four flow cells at a concentration of 25 μg/mL in 10 mM sodium acetate, pH 4.5, for seven minutes. Ethanolamine (1 M, pH 8.5) is injected for seven minutes to block any remaining activated groups. An average of 12,000 response units (RU) of capture antibody is immobilized on each flow cell.
(§2) Kinetic binding experiments are performed at 25° C. using 1×HBS-EP+ buffer. IL-2Rα-Fc or IL-2Rβ-Fc (Acro Biosystems, catalog #ILA-H5251, ILB-H5253) are injected over the anti-Fc surface at concentrations of 3-10 μg/mL for 12 seconds at a flow rate of 10 μL/minute on flow cells 2, 3 and 4, followed by a buffer wash for 30 seconds at the same flow rate. Kinetic characterization of conjugated or unconjugated aldesleukin or variants is carried out in a range of concentrations from 1 nM-10 μM and one injection of no antigen. […]

[2] = molecular target: T4, IL-2Rβ-Fc (Acro Biosystems, catalog …); experiment: as above
Experimental: as §1, §2

[3] = molecular target: T5, Mouse IL-2Rα, His tag (Table 10); experiment: SPR (Biacore T200), receptor captured on anti-histidine surface
Experimental: (§3) A Surface Plasmon Resonance (SPR) assay on a Biacore T200 (GE Healthcare) instrument was used to determine the monovalent affinities of pegylated aldesleukin variants against polyhistidine-tagged or Fc-tagged IL-2 Receptors. Biacore T200 Evaluation Software was used to fit each titration series to a 1:1 binding model or steady state affinity. The association (kₒₙ, M⁻¹ s⁻¹) and dissociation (koff, s⁻¹) rate constants were determined for each set of titrations and used to calculate the dissociation constant, KD=koff/kₒₙ, of each sample against each receptor. koff/kₒₙ values are not reported herein.
(§4) To measure the affinity of CON1 and aldesleukin for IL-2R subunits, receptors were captured on either an anti-histidine or anti-hu Fc antibody surface. […] CON1 has a six-fold lower affinity for Human and Cynomolgus/Rhesus IL-2-Rβ than aldesleukin.

[4] = molecular target: T6, Rat IL-2Rβ, His tag (Table 10); experiment: as above
Experimental: as §3, §4

[5] = molecular target: T7, Cynomolgus/Rhesus IL-2Rβ, His tag …; experiment: as above
Experimental: as §3, §4

[6] = molecular target: T8, Human IL-2Rβ, His tag (Table 10); experiment: as above
Experimental: as §3, §4

Binder	Kd (Biotin-IL-2Rβ-His) [nM]	fold reduction over wt (Biotin-IL-2Rβ-His) [fold]	Kd (Biotin-IL-2Rα-His) [nM]	fold reduction over wt (Biotin-IL-2Rα-His) [fold]	Kd [1] [nM]	Kd [2] [nM]	KD/KD (human) [3] [ratio]	Kd [3] [nM]	binding result [4]	KD/KD (human) [5] [ratio]	Kd [5] [nM]	KD/KD (human) [6] [ratio]	Kd [6] [nM]
B1	400	1	10	1	8	300							
B2							0.8	12	no binding	1.5	1100	1	730

Source: patent US20210340207A1 (Merck Sharp & Dohme, published 2021)
